{"source": "the supplement of paper PMC12632987", "binders": {"B1": {"name": "GBRAP_186_5386 (protein)", "chain": "SEEAEKKLDEVIDEAEAKGYRVIVAYLENKSVEETKAAIAREADAVAALAKETGEKYALIVYVTTKKEDIAEIQAYAAELNKKYLAETGVEVRAVVEDSE"}, "B2": {"name": "GBRAP_9_7131 (protein)", "chain": "REELVEKLAEIVKEMIEDLKEAIPELTEEQAEKFKKRVEELKKELLADKSATKEEIAERFKKLVKEIRDEVEKIVSPELAKIADAIALTAIEEIDEAVEE"}, "B3": {"name": "GBRAP_160_4742 (protein)", "chain": "KEELEKLKKEIEEIFKEGIELLKESEKEEALTIVRGIMGDVIMEVMSSEAASDELEEKIAEIADKAIEEVEKNKDAPIEKVIEIVEKAREEILKLIEEEI"}, "B4": {"name": "GBRAP_160_4538 (protein)", "chain": "NPKVEELIKDIDEEKEFIKSLVDEISVEELINAIKVEVGSLILYGEELGVISDELADKFDEIVEETIKKLKENENASNEEKKEIINEAYEKMKKALKESA"}, "B5": {"name": "GBRAP_139_3722 (protein)", "chain": "AALEAAIAEARALVAEHRDDLELLARKLAELIASVDDDTALAIARAAGEALKDWSWEEWERFIELLEEELKKLGLDEDTILAIAGELEAVAAKHLIEKEK"}, "B6": {"name": "GBRAP_160_4766 (protein)", "chain": "KEELKELLKEVKEEFDEAIEMLKESPASEAPTIIAGTMGSVIMLVESSPAVSEELEEEIAEIMDEAEARAAALKDAPVEEHIKLLEEAREKVTELIEKAI"}, "B7": {"name": "GBRAP_83_6955 (protein)", "chain": "MITVVASSKPESIRSSVEAAIDLHKEYGEKVEIEILLTKENAPAALEALKKLIDAGVEAEVILVTKESDKEAAEKLAEEIKKYAKEKGVNVKVELIVEEE"}, "B8": {"name": "GBRAP_160_3998 (protein)", "chain": "SEKLAALKAEIAAILAETLELARGEDAAERLAVVRVMGGQILLTLEESGIVSDEALAAVDAILDATAAEVAANPDLTDAELAALLDATLARINAVLEEHS"}, "B9": {"name": "GBRAP_128_3513 (protein)", "chain": "SMAAAVAQAEALMAAIGAADAATAAALTAELVDLIASADPETAAAIADKAIELLPTLSAEKLDVVADTLRARRPALDPEKANLVADIEVEALNLAEELEE"}, "B10": {"name": "GBRAP_160_4233 (protein)", "chain": "SEVVEKLVEIFREEFLEALELIKGESEEEKKVILDVTVGRIILEAEEIEGTTDEMEEVVDKMAEKMAKELLKASDKSEEEKRALIEKKAAELRKELEKLA"}, "B11": {"name": "GBRAP_14_3769 (protein)", "chain": "MEEKIKILEEAAAEVVALLAELAPEKAAAFAAAVAAITAEAIERIKETGDAEEVMEEAQARLVAAITEILAGQPAETVAQAQAVVQVTFGQAILEIDELE"}, "B12": {"name": "GBRAP_80_6803 (protein)", "chain": "AEERLAAALAEIEALDPELAERVRRIIELARELGVPVETLAEYAEAIAELLKVDKEEARELVDELEELLEEERERGDTANAEATLRVYAGEALLKVEELE"}, "B13": {"name": "GBRAP_160_3978 (protein)", "chain": "SEEIEKLKKEIKELAEEAKELIEGESYEERLTIVRVMFGEILMLLMSNENVSDETEEEVAKVGDETIAYLEANPDLTEEEIKELIKEAEKKIFEILEKNE"}, "B14": {"name": "GBRAP_39_5703 (protein)", "chain": "TAEEEAEETFSYLEALGAKYAVERGLDMEEVRRETERLAEEVIARHPELAPLVRELLALARERGDTAVLAAYGLLLRAREGEPLEKIRRDMELLIAHLKS"}, "B15": {"name": "GBRAP_160_4369 (protein)", "chain": "SSALKELAEEIEELREEFEEEAKDLSPAEVVQLSLGVLAEVAALVWENEAVSEETEDKIMEIIDAARAELRANADAPPEEIVAITLEAFDKIIELVKEEI"}, "B16": {"name": "GBRAP_16_4996 (protein)", "chain": "DELLALTEGAAEFAEQIADALEGGDPELVKLAKELAKELKRAAKLIKEGGPKEEILKELERALKLAEELAKKLAKTDAEGAAAAKTLADRIKEAIKLAKK"}, "B17": {"name": "GBRAP_52_6003 (protein)", "chain": "MEEKAKELAEKILAAALAGDWDKARALLKEVAATKDLEFIRKVAEELAKLAKTKPLEEDERLVRLADLFEDVLLEAGVPEEEALLAEGIILAGIAEGHAA"}, "B18": {"name": "GBRAP_117_2597 (protein)", "chain": "SATEEEAKKLVEEMVKLIKEAIEKQKKLSPEEAEKLRKETLEKLTKMVAELLKLVDFDTLEELFAEALKPLTPEEQVEAYILFYEALAEAEERRKKEEEE"}, "B19": {"name": "GBRAP_160_4515 (protein)", "chain": "SASLEAVLKDIDEAREEIKEVIEEGDVEAAIITADVEFGEIIMDLAEDENASDEAEDAAAEIRDKLVEELKEAKDASVEERKEIVDEKAEELKEKLKELF"}, "B20": {"name": "GBRAP_125_2966 (protein)", "chain": "ATEEELADLRRLALALGLSEEEAEEAAELARASSIRGTLYAIFAGLGYDELAEAVAEITEEEAREVLRATAAFIEAHPDATPEEVVAHALELAKAALAKR"}, "B21": {"name": "GBRAP_128_3155 (protein)", "chain": "STEEKVEETKKLLEKIKNSSLEEVPALAEKIVELIKNSTDEEAEAIADVIEEKIGELSEEKLDILADVFRKKRPELSPEKANIAAGMEVDAYNAKLEKDE"}, "B22": {"name": "GBRAP_184_5202 (protein)", "chain": "AIVERTIEFENEEELKEKLKELLEELKGFKGTVYIHVEAPEITEEMAKLLIEFVKEIKENGYATEIIVDIEGEVSEEVRDLLLDEFAKIGAKVVIALSEE"}, "B23": {"name": "GBRAP_52_6288 (protein)", "chain": "SEERVRAVADEIVELIRAGDLEGALALARQFVEEASLEEVLRLGELLIERSAELPKEKLDLAWEVVEELARGIEERFGAEEEADILEARAAAAIYAALQA"}, "B24": {"name": "GBRAP_184_5317 (protein)", "chain": "EVIHKVIEVETEEEAKKKLEEVREEVKKTGKKYLVTIELKNPTKELVKTVAEEIKKMKEEGLPVEFIVEVPEDVSEELADFAIEEFDKAGAKVVLAIPDE"}, "B25": {"name": "GBRAP_52_5851 (protein)", "chain": "MEEEAKKIAKELVKLKLAGKEEELEKKIKEIVETKSEEEILKILEELAKLAKTATPEEVEAIVETAIKLSDIAEEAGFDEWELSAAEADVGKAAYKNLQK"}, "B26": {"name": "GBRAP_52_5976 (protein)", "chain": "MEEEARKIAEEIVKLLLEGKEEEAEKLIKEVVENKSEEFIKMVLEELARMAKTADAETIDAIVEGALMLGDEALEAGFDEAEVDDGVARVVAAAVAALAA"}, "B27": {"name": "GBRAP_128_3196 (protein)", "chain": "VDPAAVAELRALAERVIATKSDEAIAAFAAAIAAALRAGRIDLDTLEEIVAALGEGLDADTLARVERALRAALADVGPEALATALGTLGEAIWEKLEEEE"}, "B28": {"name": "GBRAP_11_2666 (protein)", "chain": "KKEAYKELAELAKKLAEAVKKLIEEGIDNEELLKEAEELLKKLAKLAKEKADEATQKEVEDLKEIWEEMLKDKENRLEYAKQLLAAARVLEGNFLLEADE"}, "B29": {"name": "GBRAP_83_6989 (protein)", "chain": "AEKIVVAANKDNIEEAVDIVIDLTKEEGYDVELEIIVDKESLEKVKEAVKRLAEAGVETKITILAEGFTEEEAEELKEELEKIAKEAGVNIEIEVHIIEP"}}, "note": "The full ranking holds about 4,500 sequences; the median of “median log2 fold change of GCK-ALFA target abundance (FLAG IP / Myc IP barcode read proportion)” is about 0.078, and the lowest 2% start at about -0.6. Some of the results follow."}
{"target": "GABARAP, O95166", "sequence (O95166 whole entry, the tested form may be a part)": "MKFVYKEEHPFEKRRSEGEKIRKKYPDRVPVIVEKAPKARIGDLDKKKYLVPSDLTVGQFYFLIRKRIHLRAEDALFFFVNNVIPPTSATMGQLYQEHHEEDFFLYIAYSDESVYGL", "assay": "median log2 fold change of GCK-ALFA target abundance (FLAG IP / Myc IP barcode read proportion) (log2 ratio); each designed protein is fused to an ALFA-tag nanobody in HEK293 cells to bring the named protein to FLAG-tagged glucokinase (GCK); Myc marks an untargeted standard; higher = target protein stabilised (more abundant)", "conditions": "target protein: 3xFLAG-MCP-GCK-ALFA reporter; HEK293 landing pad (RPLP)", "summary_of_the_method": "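The readout is target abundance, the per-binder median log2 ratio of FLAG to Myc barcode read proportions. It came from HEK293 landing-pad cells carrying a recombined ALFA-nanobody-fused binder library, induced with 2 μg mL^−1 doxycycline and transfected with a plasmid for a FLAG-tagged target and a Myc-tagged standard. After 48 h, lysates were immunoprecipitated with anti-FLAG and anti-Myc, and circular RNA barcodes were reverse transcribed, amplified and sequenced. Each barcode needed a proportion of at least 10^−7 in both replicates and each binder at least 3 barcodes per replicate, a pseudocount of 10^−6 was added, and the replicates were pooled.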"}
{"binder": "B1", "median log2 fold change": 0.175}
{"binder": "B2", "median log2 fold change": 0.142}
{"binder": "B3", "median log2 fold change": 0.15}
{"binder": "B4", "median log2 fold change": -0.26}
{"binder": "B5", "median log2 fold change": -0.357}
{"binder": "B6", "median log2 fold change": 0.275}
{"binder": "B7", "median log2 fold change": -0.00594}
{"binder": "B8", "median log2 fold change": -0.533}
{"binder": "B9", "median log2 fold change": 0.00691}
{"binder": "B10", "median log2 fold change": -0.402}
{"binder": "B11", "median log2 fold change": 0.0783}
{"binder": "B12", "median log2 fold change": -0.212}
{"binder": "B13", "median log2 fold change": 0.206}
{"binder": "B14", "median log2 fold change": 0.229}
{"binder": "B15", "median log2 fold change": -0.0912}
{"binder": "B16", "median log2 fold change": 0.528}
{"binder": "B17", "median log2 fold change": 0.176}
{"binder": "B18", "median log2 fold change": 0.0608}
{"binder": "B19", "median log2 fold change": 0.171}
{"binder": "B20", "median log2 fold change": -0.481}
{"binder": "B21", "median log2 fold change": 0.217}
{"binder": "B22", "median log2 fold change": -0.159}
{"binder": "B23", "median log2 fold change": 0.0151}
{"binder": "B24", "median log2 fold change": 0.132}
{"binder": "B25", "median log2 fold change": -0.231}
{"binder": "B26", "median log2 fold change": -0.535}
{"binder": "B27", "median log2 fold change": 0.111}
{"binder": "B28", "median log2 fold change": 0.297}
{"binder": "B29", "median log2 fold change": -0.0134}
